Test results as given in the supplement of paper PMC4466236.
Over roughly 33,000 sequences, “E-score (dimensionless, -0.5 to 0.5)” has its median near -0.058; the highest 2% begin near 0.35. The list shows a part of the results.

Test system: MvaT
Experiment: PBM 8-mer E-score (mean of HK and ME arrays) (E-score (dimensionless, -0.5 to 0.5)); higher = stronger relative binding preference; most listed sequences are background and not binding sites
Method: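 Protein binding microarray: GST-tagged full-length MvaT (P. aeruginosa PAO1) bound to two universal double-stranded 60-mer arrays (ME and HK), each with a constant 25-mer primer and a variable 35-mer region covering all 8-mers. The 8-mer E-score (rank-based, range -0.5 to 0.5, >0.45 = specific binding) is the mean of the two arrays.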

Sequence | PBM 8-mer E-score
AAATAAAG | 0.405
TCACTAAA | 0.09
AGCACAGG | -0.197
CGACTAAA | 0.0875
ATCACGAA | 0.0464
GAGAGTCC | -0.294
CTTTATGA | 0.126
ACCTCGAT | -0.0851
AAGACAGG | -0.129
CGACGCCA | -0.199
AGTGTCCA | -0.0879
AATTGTAG | 0.182
CCGCGAAG | -0.217
AAAAGCGG | 0.0615
CTCCAAAC | -0.0484
CTAGTTCC | -0.114
GGTGTGCA | -0.032
GTGAACCA | -0.139
TACTCCTA | -0.0716
CACGTTTA | 0.144
CTCACCTA | -0.0511
AGTAGGAA | 0.0174
CGGGGGAA | -0.0708
AGTAGGTC | -0.199
AGGTCCCA | -0.174

Sequence | PBM 8-mer E-score
CCAGGTGC | -0.286
CCGGTCCA | -0.119
AGCTTAGG | -0.164
ACCTAGAC | -0.213
CAGGTCCG | -0.271
GTTCTTAA | 0.133
CTTTCTGC | -0.0902
GCAGTCCC | -0.22
GGGGTGAA | 0.00647
CTTAATCC | 0.0506
CATCGGTA | -0.0732
ATTGGTGG | 0.00541
ACGTACAT | 0.13
CCGTGAAG | -0.181
GTCATAGA | -0.137
ACCTGACT | -0.114
AAACGGAT | 0.0223
GCACTTAA | 0.222
GCCGAATA | 0.0593
CACGCCTC | -0.232
CCGAGGCA | -0.0427
ATTGCTCG | 0.057
CCGTCTAC | -0.182
CTTTCAAA | 0.263
CATCATCC | -0.0345

Sequence | PBM 8-mer E-score
AATGTACA | 0.314
CCTAGTAA | 0.0327
CCATGCGC | -0.238
AATTGGAC | 0.093
ACGCAGTC | -0.327
GGCTACGA | -0.172
AGGACCCA | -0.18
CTCGACCA | -0.111
AACTATAG | 0.236
GGTGCACC | -0.189
CAGAATCA | -0.00147
CGGTCGGC | -0.161
AGAGTTAA | 0.188
GAACCCGC | -0.164
AACGAGGA | -0.202
GGAATTCC | -0.039
TCTAAGCA | 0.132
AATAGTGG | 0.252
AAAAATCT | -0.0904
GCAACCGA | -0.119
GGATGTGA | -0.145
CGAAGTTC | 0.106
AACCCGTG | -0.144
AACTTGCC | 0.213
CACCAATG | -0.132

Sequence | PBM 8-mer E-score
AGAAAAGA | 0.219
GAACTCGA | -0.133
TCTACGCA | -0.13
AGAGTCGG | -0.106
CGTTTAAA | 0.317
GAAGACAC | -0.0042
CCGATGGA | -0.296
GACCTCGC | -0.286
CAGTTTAC | -0.1
AGTTTAGC | 0.132
AATGCACG | -0.0268
AGCCACAA | -0.136
AAGTCACG | -0.0325
ATAATCCC | 0.0407
CAAAATCC | -0.0545
ATAACCAA | 0.242
GCCGTAGA | -0.157
GGTAAGTA | 0.0966
AAAAGCAA | 0.177
ATCCCGAC | -0.101
ATTGGTAG | 0.0602
AGGGGCAG | -0.229
ACAAGACA | -0.0679
ACCGATAC | -0.0985
GAATCGCA | -0.138

Sequence | PBM 8-mer E-score
CGTAGCGC | -0.251
GCTTCTTA | -0.00344
CGTAGTAG | -0.0801
ATTTCGAG | 0.103
ATACGGAG | 0.00916
AATAGCAA | 0.295
ATGCGTTA | 0.0937
ATGCGAAC | 0.0341
GGTCTTTA | 0.0246
AACCTGCT | -0.0689
CCGCGCTC | -0.251
CATTTACG | 0.128
ATCGTTAG | -0.0564
AATCGAGA | 0.0284
ATGCCTAC | -0.0346
GTTTGTCA | 0.195
AGAATTAG | 0.00537
ATAATCTC | 0.337
TGAAGCAA | -0.0937
CCTGACTA | -0.101
ACCTGCGA | 0.0108
GCAGAACC | -0.248
CAAATTCG | 0.16
TCAAAAGA | -0.0953
GCCGGTAA | -0.0408

Sequence | PBM 8-mer E-score
CCGGCCTC | -0.247
CATCTCGA | -0.174
AACTAACT | 0.319
ATAGTTCC | 0.134
ACACGACC | -0.0101
GTAGTGCA | -0.115
AGACTTGG | -0.179
CCATCACG | -0.185
GGCATCAA | -0.276
CAAATAGG | 0.0611
CTGCTCAC | -0.0923
GAACTGTA | 0.204
CTGTCAAC | -0.0827
GACGACCA | -0.176
ACAACATA | 0.316
AATCAGCA | 0.00273
CTGATGGC | -0.204
ATTGTTAG | 0.235
GTATTCTA | 0.112
AATTCGCG | 0.137
AGGATAAA | 0.22
ACCAACGC | -0.0165
AGGAAACA | 0.0687
CCTTCTGC | -0.214
AATTTGTA | 0.309

Sequence | PBM 8-mer E-score
TAGCTCGA | -0.0695
ATTCCGGC | -0.0431
CAAACACC | 0.0703
GATGAGTA | 0.132
CAGCGTCC | -0.2
CAATCTGC | -0.135
GACTCAAA | -0.0301
CTCTAAGA | -0.0191
CTATTATC | 0.263
AACGCTCA | -0.106
CCACTTAG | -0.102
CCTGCCCC | -0.338
CAAACCTC | -0.0187
CGGGATGA | -0.127
CAGTTTAG | 0.0785
CTCAAAAC | 0.0985
CCCTCGTC | -0.263
CGTCCTGA | -0.0672
GATTCACA | 0.108
AAAACCTG | 0.0557
GTCTCAAA | 0.0374
CAAAACCA | 0.0514
